Measured values as given in PubChem BioAssay AID924 (National Center for Advancing Translational Sciences (NCATS), 2007).
Values joined by “and” are separate entries in the source; they are usually repeats but may differ in a detail not shown here. Equal entries are not always repeated. The whole screen tested about 130,000 compounds, of which about 1,200 (0.92%) were called active. The inconclusive results got no clear call from the source; some entries with a clear call stand among them for comparison. Calls come from the whole dose curve; as a rule, active = well fitted cell-killing curve with a large enough effect; inconclusive = small, poorly fitted or top-dose-only effect; inactive = no such curve, though single readings can be large or run the other way. Potencies of inconclusive entries are doubtful fits and often do not repeat.

Test: qHTS Screen for Compounds that Selectively Target Cancer Cells with p53 Mutations: Cytotoxicity of p53ts Cells at the Permissive Temperature; note: nearly all actives have a fitted effect of over 55% in size;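 for activity change, negative = cytotoxicity: 0% = DMSO and -100% = full killing by reference compound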
Settings: H1299-p53A138V at 32C, ATP luminescence viability, 24 h; activity change, negative = cytotoxicity: at 46.1 µM (top of the series)
Outline: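 H1299-p53 A138V cells (temperature-sensitive p53) exposed 24 h to up to 46 uM compound at 32C, where p53 is wild-type in conformation. Viability read as ATP luminescence and normalised to DMSO and 100 uM tamoxifen. AC50 fitted with the Hill equation.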
Potency is the fitted concentration of half-maximal effect; tags give direction and shape of the fitted curve.

Row | SMILES | activity change, negative = cytotoxicity | Potency
1 | Cc1ccccc1CN1C(=O)c2ccccc2Sc2ccc(C(=O)NC3CCCC3)cc21 | inactive: 6.36% | 
2 | COc1ccc(N2CC(NC(=O)c3ccc(S(=O)(=O)N4CCOCC4)cc3)CC2=O)cc1OC (centres undefined) | inactive: -1.21% | 
3 | CC(C)COC[C@H](CN(Cc1ccccc1)c1ccccc1)N1CCCC1 |  | inactive
4 | CCc1ccc2oc(-c3cc(NC(=O)c4cccnc4)cc(C)c3O)nc2c1 |  | inconclusive: 7.94 µM [cytotoxic, partial curve]
5 | CC(=O)c1cccc(NC(=O)c2cc(-c3ccc4c(c3)OCCO4)on2)c1 |  | active: 1.26 µM
6 | CCOC(=O)c1cnc(-n2nc(C)cc2C)nc1N(C)C |  | active: 3.16 µM
7 | Cc1ccc(Cl)cc1N(C)C(=O)c1cc2ccc3cccnc3c2[nH]1 | inactive: 19% | 
8 | CCOc1ccc(-c2nnc(SCC(=O)NCCc3ccccc3)nc2-c2ccc(OCC)c(OC)c2)cc1OC |  | inconclusive: 31.6 µM [cytotoxic, single point]
9 | Cc1cccc(C(=O)Nc2nnc(S(=O)(=O)N3c4ccccc4CC3C)s2)c1 (centres undefined) | inactive: -0.355% | 
10 | Cc1ccccc1CN1C(=O)C(O)(CC(=O)c2cccc(Br)c2)c2ccccc21 (centres undefined) |  | inconclusive: 35.5 µM [cytotoxic, single point]
11 | CCc1ccccc1NC(=O)c1ccc2[nH]c(C)c(C)c2c1 |  | inconclusive: 7.94 µM [cytotoxic, partial curve]
12 | Cc1ccc(NC(CNS(=O)(=O)c2ccc(Cl)cc2)c2ccccc2)cc1 (centres undefined) |  | inconclusive: 35.5 µM [cytotoxic, single point]
13 | Cc1cc(C)nc(Nc2nc(=O)c3ccccc3s2)n1 |  | inconclusive: 31.6 µM [cytotoxic, single point]
14 | Cc1nn(-c2ccccc2)c2sc(C(=O)N3CCCCC3)cc12 | inactive: 4.37% | 
15 | O=C(Cc1ccc(F)cc1)NCCc1csc(-c2ccc(C(F)(F)F)cc2)n1 | inactive: 4.69% | 
16 | c1cc2c(cc1-c1cnc3n1CCC3)OCCO2 |  | inconclusive: 12.6 µM [cytotoxic, partial curve]
17 | Cc1ccc(-n2c(C)cc(C3N=C(N)Nc4nc5ccccc5n43)c2C)c(C)c1 (centres undefined) |  | inconclusive: 31.6 µM [cytotoxic, single point]
18 | Cc1cc(C(=O)COC(=O)c2ccc3c(c2)OCO3)c(C)n1Cc1cccs1 |  | inconclusive: 31.6 µM [cytotoxic, single point]
19 | CN(C)CCCN1c2ccccc2Sc2ccc3ccccc3c21 | inactive: -3.32% [at 9.22 µM] | 
20 | Cc1cccc(OCCCCn2c(C3CC(=O)N(c4ccc(C)cc4C)C3)nc3ccccc32)c1 (centres undefined) |  | inconclusive: 12.6 µM [cytotoxic, single point]
21 | CCOC(=O)COc1ccc(C(=O)c2ccccc2)c(O)c1 | inactive: -2.39% | 
22 | COc1ccc(Cl)cc1NC(=O)CSc1nnc2[nH]c(=O)cc(-c3ccccc3)n12 |  | inconclusive: 1 µM [cytotoxic, full curve, poor fit]

Row | SMILES | activity change, negative = cytotoxicity | Potency
23 | Cc1cc(C)cc(NS(=O)(=O)c2ccc3[nH]cc(C(=O)NCc4ccco4)c(=O)c3c2)c1 |  | inconclusive: 2 µM [cytotoxic, full curve] and inconclusive: 2.51 µM [cytotoxic, full curve]
24 | CCOC(=O)c1cc2c(=O)n3ccccc3nc2n(CC2CCCO2)c1=NC(=O)c1cc(C)cc(C)c1 (centres undefined) |  | inconclusive: 0.794 µM [cytotoxic, full curve]
25 | Cc1cccc(NC(=O)CSc2nnc(-c3cc(C)n(-c4ccccc4)c3C)o2)c1C |  | inconclusive: 0.282 µM [cytotoxic, full curve, poor fit]
26 | COc1ccc2nc(NC(=O)c3cccc(OCc4c(C)noc4C)c3)sc2c1 |  | inconclusive: 12.6 µM [cytotoxic, partial curve]
27 | CCSc1nnc(NC(=O)c2ccco2)s1 |  | inconclusive: 12.6 µM [cytotoxic, single point]
28 | COc1cc2nc(Nc3cccc(C)c3)nc(N)c2cc1OC |  | inconclusive: 12.6 µM [cytotoxic, single point]
29 | CN(C)c1ccc2c(c1)OC(N)=C(C#N)C2c1cccc(F)c1 (centres undefined) |  | inconclusive: 25.1 µM [cytotoxic, single point]
30 | COc1ccc(NC(=O)c2sc3nc4c(cc3c2N)CCCCCC4)cc1 |  | inconclusive: 31.6 µM [cytotoxic, single point]
31 | CCn1c(=O)cc(C(=O)OC)sc1=Nc1ccc(F)c(F)c1 |  | active: 20 µM
32 | Cc1c(-c2ccc(Cl)cc2)c(=O)oc2c(CN3CCN(CCO)CC3)c(O)ccc12 | inactive: -0.389% | 
33 | CCOc1ccc(CNC(=O)c2ccccc2NC(=O)c2nsc3ccccc23)cc1 |  | inconclusive: 12.6 µM [cytotoxic, single point]
34 | O=c1oc2ccccc2cc1-c1cn2cccnc2n1 |  | inconclusive: 10 µM [cytotoxic, partial curve]
35 | Cc1c(Cl)cccc1NC(=O)C1CCCN(c2nnc(-n3c(C)ccc3C)s2)C1 (centres undefined) | inactive: -6.13% | 
36 | Cc1ccc(CSC2=Nc3ccccc3C3=NC(CCC(=O)NCc4cccs4)C(=O)N23)cc1 (centres undefined) |  | inconclusive: 3.98 µM [cytotoxic, full curve]
37 | Cc1ccc(C)c(NC(=O)c2nc(S(C)(=O)=O)ncc2N(Cc2ccc(C(C)(C)C)cc2)Cc2ccco2)c1 | inactive: -1.38% | 
38 | CCCCCCCC/C=C\CCCCCCCC(=O)NCc1ccc(O)c(OC)c1 |  | inconclusive: 31.6 µM [cytotoxic, single point]
39 | O=S(=O)(Nc1cccc(-c2ccc(N3CCOCC3)nn2)c1)c1ccc(F)cc1F |  | inconclusive: 12.6 µM [cytotoxic, partial curve]
40 | CCCCOc1ccc(CNC(=O)c2ccc(NC(=O)N3CCSc4ncccc43)cc2)cc1 | inactive: 0.876% | 
41 | Cc1ccc(-c2nc3cccnc3o2)cc1NC(=O)COc1ccc(Cl)cc1C |  | inconclusive: 20 µM [cytotoxic, partial curve, poor fit]
42 | COC(=O)c1ccc(OCC(=O)c2ccc(O)cc2O)cc1 |  | active: 12.6 µM
43 | Cc1ccc(NC(=O)/C(C#N)=C\c2ccc(Cl)cc2Cl)cc1C |  | inconclusive: 31.6 µM [cytotoxic, single point]
44 | CCOc1ccccc1N1CC(c2nc3ccccc3n2CCOc2ccc(C(C)(C)C)cc2)CC1=O (centres undefined) |  | inconclusive: 25.1 µM [cytotoxic, single point]
